Source: PubChem BioAssay AID889 (National Center for Advancing Translational Sciences (NCATS), 2007)
The campaign covered roughly 75,000 compounds. About 15 (0.02%) were called active. The shares of active, inactive and inconclusive entries below differ from those in the screen. The call rests on the fitted dose curve; in most records, active means well fitted inhibition curve with a large enough effect in the main read-out, with a control signal flat (not every such curve was filed as active); inconclusive means small, poorly fitted or top-dose-only effect, or a change in a side signal; inactive means flat fitted curve, though single readings scatter. Where the call is inconclusive, the potency comes from a doubtful curve fit. A note “side channel” means that the fit belongs to a control or component signal, not to the main read-out.

Each compound was assayed against Caspase-7 (Homo sapiens) (UniProt P55210) (assay: qHTS Assay for Allosteric/Competitive Inhibitors of Caspase-7). Conditions: recombinant caspase-7, Ac-DEVD-AFC fluorescence rate; activity change, negative = inhibition: at 57.5 µM (top of the series) unless noted.
Sequence of UniProt P55210 (P55210 whole entry, looked up): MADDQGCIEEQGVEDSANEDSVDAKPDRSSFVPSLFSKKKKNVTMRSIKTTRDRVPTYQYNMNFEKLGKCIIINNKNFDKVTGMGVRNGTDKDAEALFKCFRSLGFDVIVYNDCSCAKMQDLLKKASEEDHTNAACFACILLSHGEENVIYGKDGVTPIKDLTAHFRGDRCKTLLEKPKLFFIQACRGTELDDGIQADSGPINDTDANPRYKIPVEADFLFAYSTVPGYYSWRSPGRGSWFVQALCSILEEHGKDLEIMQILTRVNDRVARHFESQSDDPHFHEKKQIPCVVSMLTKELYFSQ
Potency means the concentration at half of the fitted maximal effect; tags describe the fitted curve by direction and shape or compound fluorescence and quenching.
Wherever activity change, negative = inhibition is given: % of control where 0% means no effect.

Row | SMILES | Potency | activity change, negative = inhibition
1 | O=c1[nH]c2ccccc2nc1-c1cccs1 | inconclusive: 15.8 µM [fluorescent, side channel, partial curve] | 
2 | O=C(CCN1CCCCC1)c1csc2ccccc12 |  | inactive: 0.311% [at 11.5 µM]
3 | COc1ccc(O)c(/C=c2/sc3nc4cc(C)c(C)cc4n3c2=O)c1 |  | inactive: -16.7%
4 | O=c1c(CCc2ccccc2)nc2cnc(N3CCNCC3)nc2n1C1CC1 | inconclusive: 25.1 µM [inhibitor, partial curve] | 
5 | Cc1cccc2cc(C#N)c(NCCNS(=O)(=O)c3ccc4c(c3)OCCO4)nc12 | inconclusive: 25.1 µM [fluorescent, partial curve] | 
6 | Cc1ccc(CNc2ccc3c(c2)OCO3)cc1 | inconclusive: 31.6 µM [inhibitor, single point] | 
7 | Fc1ccc(Br)cc1C1C=C(c2cccnc2)Nc2ncnn21 (stereo not given) | inconclusive: 25.1 µM [fluorescent, partial curve] | 
8 | CCN1CCN(C(=O)c2cc3c(-c4ccc(Cl)cc4)nn(C)c3s2)CC1 |  | inactive: -1.12%
9 | Cc1cccc2cc(C#N)c(N3CCCC3)nc12 | inconclusive: 25.1 µM [fluorescent, partial curve] | 
10 | CCc1nc2sc3c(c2c(=O)n1N)CCC3 |  | inactive: 0.751%
11 | COc1ccc(C2C(C#N)=C(N)N3C(=C2C#N)Sc2ccccc23)cc1 (stereo not given) | inconclusive: 3.16 µM [fluorescent, side channel, partial curve] | 
12 | O=C(c1ccco1)N1CCC2(CC1)CCN(c1ccccc1)CC2 |  | inactive: -2.59%
13 | O=C1NC(=O)[C@@H]2C3c4ccccc4C=CN3[C@H](C(=O)c3cccs3)[C@H]12 (stereo not given in full) | inconclusive: 39.8 µM [inhibitor, single point] | 
14 | O=c1oc2ccccc2n1Cn1c(=O)oc2ccccc21 |  | inactive: 2.39%
15 | O=c1c(-c2ccc(Cl)cc2)nc2cnc(N3CCNCC3)nc2n1Cc1cccs1 | inconclusive: 15.8 µM [fluorescent, partial curve] | 
16 | COC(=O)c1c(C#N)c(N)nc2c1CCC2 | inconclusive: 7.94 µM [fluorescent, side channel, partial curve] | 
17 | Cc1ccc2nc(NC(=O)COC(=O)c3ccco3)sc2c1 |  | inactive: -2.3%
18 | Cc1c2ccccc2c(C)c2c1ccc1ccccc12 | inconclusive: 31.6 µM [fluorescent, side channel, partial curve] | 
19 | Cc1ccc(S(=O)(=O)c2cc3c(=O)n4ccccc4nc3n(CC3CCCO3)c2=N)cc1 (stereo not given) | inconclusive: 15.8 µM [inhibitor, partial curve] | 
20 | COc1ccc(S(=O)(=O)Nc2ccccc2C(=O)O)cc1 |  | inactive: -0.444%
